“And” between values parts separate entries of the source, which are not always exact repeats. Equal entries are not always repeated. Some of the results follow. Shown are side measurements of this screen, not its main read-out; they come without a call. The note in brackets gives the kind of curve behind each potency; many fits are weak.

Usually AC50 stands for the concentration giving half of the maximal activity seen.
Tags tell the direction and shape of the fitted curve.

The nature of the first assay: qHTS drug screen for cell cycle checkpoint inhibitors in PARPi-resistant BRCA-mutant ovarian cancer cell lines. (AID 1963452). Particulars: PEO1/OlaR viability, CellTiter-Glo luminescence, 96 h; measured here: PEO1 parental viability. The essentials:
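PEO1, PEO4 and PEO1/OlaR ovarian cancer cells, 600 per well, exposed 96 h at 37C to a dilution series. Viability read by CellTiter-Glo luminescence, normalized to DMSO and empty wells; activity summarized as Z-AUC.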
For orientation: qHTS replaces the single test concentration by a dilution series.
Turning to `CC1(C)CCC2(CC1)N[C@@H](C(=O)N[C@@H]1CC[C@@H](C(N)=O)OC1)[C@H](c1ccnc(Cl)c1F)[C@]21C(=O)Nc2cc(Cl)ccc21`, the AC50 is 13.3 µM [falling, partial curve]. On the same count and under the same terms, with `CNC(=O)c1ccccc1Sc1ccc2c(/C=C/c3ccccn3)n[nH]c2c1` the figure was 2.19 µM [falling, full curve]; with `C=CC(=O)Nc1cc(Nc2nccc(-c3cn(C)c4ccccc34)n2)c(OC)cc1N(C)CCN(C)C`, 19.5 µM [falling, partial curve]. Turning to `CCN1CCN(Cc2ccc(NC(=O)c3ccc(C)c(NC(=O)c4cncc(-c5cccs5)c4)c3)cc2C(F)(F)F)CC1`, the half-maximal activity concentration (AC50) is 0.616 µM [falling, full curve]. The same measure, in the same setting: with `COc1cc(Nc2cnc(C#N)c(O[C@H](C)CN(C)C)n2)ncc1-c1cnn(C)c1` the figure was 2.75 µM [falling, full curve]. The same measure, in the same setting: under `COCc1c(-c2ccc(NC(=O)Nc3cc(C(F)(F)F)ccc3F)c(F)c2)c2c(N)ncnn2c1CN1CCOCC1` stands 12.3 µM [falling, partial curve, poor fit].

The same assay, now with this note: PEO1/OlaR viability, CellTiter-Glo luminescence, 96 h; measured here: PEO4 viability.
With `COC(=O)Nc1cc(Nc2cc(NC3CC3)c3ncc(C#N)n3n2)c(Cl)c(N2CCN(C)CC2)c1`, the AC50 is 0.616 µM [falling, full curve]. On the same count and under the same terms, under `CCOC(=N)c1nc2ccc3ncnc(Nc4cc(F)c(F)cc4Cl)c3c2s1` stands 6.16 µM [falling, partial curve]; under `Cn1cc(-c2cc(Oc3cc(F)c(NC(=O)C4(C(=O)Nc5ccccc5)CC4)cc3F)ccn2)cn1`, 17.4 µM [falling, partial curve]. The same measure, in the same setting: under `COc1cc2c3c(n(CCCN4CCOCC4)c(=O)c2cc1OC)-c1cc2c(cc1C3=O)OCO2` stands 3.09 µM [falling, partial curve]; under `CNC(=O)CCc1cc(-c2ccc(-c3ccc(C(F)(F)F)cc3)cc2)n(-c2ccc(N3CCNCC3)cc2)n1`, 5.49 µM [falling, single point]; under `Cc1cc(N2CCOCC2)ccc1Nc1nc(NC2CCCCC2)c2[nH]cnc2n1`, 11 µM [falling, partial curve]. Same read-out and setting: with `CS(=O)(=O)c1ccc(-c2cnc(N)c(C(=O)Nc3ccccc3)n2)cc1` the figure was 3.89 µM [falling, full curve]; with `O=C(Nc1ccc(OC(F)(F)Cl)cc1)c1cnc(N2CC[C@@H](O)C2)c(-c2ccn[nH]2)c1`, 5.49 µM [falling, partial curve]. With `CSc1ccc(C(=O)/C=C/c2cc(C)c(OC(C)(C)C(=O)O)c(C)c2)cc1`, the AC50 is 31.6 µM [falling, single point].

Consider `Cc1ccc(Sc2ccccc2N2CCNCC2)c(C)c1`, for which the AC50 is 24.5 µM [falling, single point]. For `CNc1ncc2cc(-c3cc(NC(=O)NCCC(C)(C)C)c(F)cc3C)c(C)nc2n1`, the concentration at half-maximal activity (AC50) is 2.45 µM [falling, partial curve]. Same read-out and setting: under `CO[C@H]1/C=C/O[C@@]2(C)Oc3c(C)c(O)c4c(O)c(c5c(nc6cc(C)ccn65)c4c3C2=O)NC(=O)/C(C)=C\C=C\[C@H](C)[C@H](O)[C@@H](C)[C@@H](O)[C@@H](C)[C@H](OC(C)=O)[C@@H]1C` stands 5.49 µM [falling, full curve]; under `Cc1ccc(C(=O)c2cc(O)c(O)c([N+](=O)[O-])c2)cc1`, 24.5 µM [falling, single point]; under `Cn1cncc1C(N)(c1ccc(Cl)cc1)c1ccc2c(c1)c(-c1cccc(Cl)c1)cc(=O)n2C` (stereo unspecified), 19.5 µM [falling, partial curve, poor fit].

In the case of `CC[C@@]1(O)C(=O)OCc2c1cc1n(c2=O)Cc2c-1nc1ccccc1c2CCNC(C)C`, the half-maximal activity concentration (AC50) is 0.0549 µM [falling, full curve]. `Cc1cc(O[C@@H](CCC(F)(F)F)c2ccc(C(=O)NCCC(=O)O)cc2)cc(C)c1-c1ccc(C(C)(C)C)cc1`: the AC50 is 21.9 µM [falling, partial curve]. Same read-out and setting: under `C=C1C(=O)OC2/C=C(/C)CC/C=C(/C)CCC12` (stereo unspecified) stands 24.5 µM [falling, single point]; under `CC(C)CC(=O)N[C@H](C(=O)N[C@H](C(=O)N[C@@H](CC(C)C)[C@@H](O)CC(=O)N[C@@H](C)C(=O)N[C@@H](CC(C)C)[C@@H](O)CC(=O)O)C(C)C)C(C)C`, 17.4 µM [rising, partial curve]. Same read-out and setting: with `CN(C)CCNC(=O)NC[C@H]1CC[C@@H]2[C@H](O1)c1cc(C(F)(F)F)ccc1N[C@H]2c1ccccc1` the figure was 0.245 µM [falling, full curve]; with `CCN1CCN(Cc2ccc(NC(=O)c3ccc(C)c(/C=C/c4cnc5[nH]ccc5c4OC)c3)cc2C(F)(F)F)CC1`, 6.16 µM [falling, partial curve]. As to `COC(=O)C[C@](O)(CCCC(C)(C)O)C(=O)O[C@@H]1C(OC)=C[C@]23CCCN2CCc2cc4c(cc2[C@H]13)OCO4`, the half-maximal activity concentration (AC50) was 0.0871 µM [falling, full curve].

In the case of `FC(F)(F)c1ccc(/C=C/c2nc(COc3ccc(CCCCn4ccnn4)cc3)co2)cc1`, the AC50 was 0.0977 µM [falling, full curve]. Still for that read-out and setting: under `COc1ccc(CNc2nc(N(CCO)CCO)nc3c2ncn3C(C)C)cc1` stands 6.92 µM [falling, partial curve]; under `C[C@H](c1ccc(F)cc1CCCC(=O)O)N(c1cc(F)ccc1F)S(=O)(=O)c1ccc(Cl)cc1`, 8.71 µM [falling, partial curve, poor fit]. Regarding `CN(C)C1CCN(C(=O)c2ccc(NC(=O)Nc3ccc(-c4nc(N5CCOCC5)nc(N5CCOCC5)n4)cc3)cc2)CC1`, the AC50 is 219 nM [falling, full curve] and 49 nM [falling, full curve].

Consider `COC(=O)C1=C(C)NC(C)=C(C(=O)OCCN2CCN(C(c3ccccc3)c3ccccc3)CC2)C1c1cccc([N+](=O)[O-])c1` (stereo unspecified), for which the concentration at half-maximal activity (AC50) was 27.5 µM [falling, single point]. Consider `COc1cc(N2CCN(C)CC2)ccc1Nc1ncc2c(n1)N(C)c1ccccc1C(=O)N2C`, for which the AC50 is 6.92 µM [falling, partial curve]. Still for that read-out and setting: under `O=C(Nc1ccnc(NC(=O)C2CC2)c1)c1c(Cl)cccc1Cl` stands 17.4 µM [falling, partial curve]. The same measure, in the same setting: with `CC(/C=C/C(=O)NO)=C\[C@@H](C)C(=O)c1ccc(N(C)C)cc1` the figure was 0.309 µM [falling, full curve]; with `CCCCCCCOc1ccc(CCC(N)(CO)CO)cc1C(F)(F)F`, 12.3 µM [falling, partial curve]; with `O=C(/C=C\n1cnc(-c2cc(C(F)(F)F)cc(C(F)(F)F)c2)n1)N1CC(F)(F)C1`, 0.549 µM [falling, full curve]. The same measure, in the same setting: with `CN(C)C/C=C/C(=O)Nc1cc2c(Nc3ccc(F)c(Cl)c3)ncnc2cc1O[C@H]1CCOC1` the figure was 3.09 µM [falling, full curve]. For the compound `COc1ccc(/C=C\c2cc(OC)c(OC)c(OC)c2)cc1O`, the half-maximal activity concentration (AC50) was 0.0062 µM [falling, full curve, poor fit]. Same read-out and setting: with `CO[C@H]1/C=C\C=C(\C)C(=O)NC2=CC(=O)C(NCCN(C)C)=C(C[C@@H](C)C[C@H](OC)[C@H](O)[C@@H](C)/C=C(/C)[C@@H]1OC(N)=O)C2=O` the figure was 0.389 µM [falling, full curve, poor fit]. With `CC1(C)CCC2(CC1)N[C@@H](C(=O)N[C@@H]1CC[C@@H](C(N)=O)OC1)[C@H](c1ccnc(Cl)c1F)[C@]21C(=O)Nc2cc(Cl)ccc21`, the concentration at half-maximal activity (AC50) was 21.1 µM [falling, single point]. In the case of `CNC(=O)c1ccccc1Sc1ccc2c(/C=C/c3ccccn3)n[nH]c2c1`, the half-maximal activity concentration (AC50) is 1.23 µM [falling, full curve].

For `C=CC(=O)Nc1cc(Nc2nccc(-c3cn(C)c4ccccc34)n2)c(OC)cc1N(C)CCN(C)C`, the concentration at half-maximal activity (AC50) was 15.5 µM [falling, partial curve, poor fit]. Still for that read-out and setting: with `CCN1CCN(Cc2ccc(NC(=O)c3ccc(C)c(NC(=O)c4cncc(-c5cccs5)c4)c3)cc2C(F)(F)F)CC1` the figure was 1.1 µM [falling, full curve]; with `COc1cc(Nc2cnc(C#N)c(O[C@H](C)CN(C)C)n2)ncc1-c1cnn(C)c1`, 2.19 µM [falling, full curve]. For `COCc1c(-c2ccc(NC(=O)Nc3cc(C(F)(F)F)ccc3F)c(F)c2)c2c(N)ncnn2c1CN1CCOCC1`, the AC50 is 6.92 µM [falling, partial curve, poor fit].

Values taken from PubChem BioAssay (NCATS).
